Variants at the floor of the assay are shown more often than the library holds them.
B1: TPR 5TU (parent)
chain: GGAUCUUCUCGAUCUAACAAAAAAGACAAAUCUGCCACAAAGCUUGAGAGCAUCUUCGGAUGCAGAGGCGGCAGCCUUCGGUGGCGCGAUAGCGCCAACGUUCUCAACUAUGACACGCAAAACGCGUGCUCCGUUGAAUGGAGUUUAUCAUG

Variants of: B1
Assay: polymerase ribozyme fitness, log enrichment relative to wild type (log ratio); higher = more active; in vitro selection for triplet polymerase activity
Method in brief: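 Libraries of mutants in each subunit of a heterodimeric triplet polymerase ribozyme were generated by PCR and transcribed. In triplicate, each went through one in vitro selection round: annealing with biotinylated primer, partner subunit and triplets; frozen incubation at −7 °C; gel excision of extended constructs; streptavidin-bead capture; RT-PCR. Fitness, taken from Illumina sequencing of input and output libraries, is the logarithm of a genotype's enrichment over wild-type enrichment, averaged across replicates with inverse-variance weights. The logarithm is base 2, and genotypes needed ≥10 input reads and ≥1 read per output to be kept.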

Compared with C27A G92A C103G, C27A G117A is higher in “polymerase ribozyme fitness (log ratio)” value: no more than -4.2 for the first, -3.86 for the second.

C27A U44G U55G G62C A64C G80C C116A A137U and C27A U55A G71A U77C C95U A113C C149G cannot be ordered by “polymerase ribozyme fitness (log ratio)” value: no more than -4.2 for the first, no more than -4.2 for the second.

C27A U55G G58C G83U G84C A115U and C27A U56A A60U A122C U144A cannot be ordered by “polymerase ribozyme fitness (log ratio)” value: no more than -4.2 for the first, no more than -4.2 for the second.

C27G A28G A29U A41U C72U G86A A91U G112U U145A and C27G A28G A89U A91C cannot be ordered by “polymerase ribozyme fitness (log ratio)” value: no more than -4.2 for the first, no more than -4.2 for the second.

C27G A28G C87A C105U C116U A150G and C27G A28U cannot be ordered by “polymerase ribozyme fitness (log ratio)” value: no more than -4.2 for the first, no more than -4.2 for the second.

C27G A28U G83A A97C A121U C149G and C27G A29G C95U cannot be ordered by “polymerase ribozyme fitness (log ratio)” value: no more than -4.2 for the first, no more than -4.2 for the second.

C27G A30C A47U G83C C116G G124C G143C and C27G A30C A66G G84U G133U cannot be ordered by “polymerase ribozyme fitness (log ratio)” value: no more than -4.2 for the first, no more than -4.2 for the second.

C27G A37C C93A A115G and C27G A37C U44A U45A C57U G68A G83A A119U A120U A147G cannot be ordered by “polymerase ribozyme fitness (log ratio)” value: no more than -4.2 for the first, no more than -4.2 for the second.

C27G A37G A64C C99A and C27G A39U G84C G126U cannot be ordered by “polymerase ribozyme fitness (log ratio)” value: no more than -4.2 for the first, no more than -4.2 for the second.

C27G A40C G58U U61A G62A C87A A121C and C27G A40U U44A C85U C87U G126C A142U G152U cannot be ordered by “polymerase ribozyme fitness (log ratio)” value: no more than -4.2 for the first, no more than -4.2 for the second.

C27G A41C U44A C96A A107G G141C and C27G A41G C85G cannot be ordered by “polymerase ribozyme fitness (log ratio)” value: no more than -4.2 for the first, no more than -4.2 for the second.

C27G A49C G50U C54U C87G and C27G A49C G74U G81U C85U U90A C103G C125G U134G cannot be ordered by “polymerase ribozyme fitness (log ratio)” value: no more than -4.2 for the first, no more than -4.2 for the second.

C27G A52G C57G G71A G92U and C27G A52G G92U G141A cannot be ordered by “polymerase ribozyme fitness (log ratio)” value: no more than -4.2 for the first, no more than -4.2 for the second.

C27G A52U G68A A89U G94C A110U and C27G C32G U53G C99U A107U cannot be ordered by “polymerase ribozyme fitness (log ratio)” value: no more than -4.2 for the first, no more than -4.2 for the second.

C27G C36A C38U A49G C79U C87U A142U and C27G C36G U78C A106C C125U U130A cannot be ordered by “polymerase ribozyme fitness (log ratio)” value: no more than -4.2 for the first, no more than -4.2 for the second.

C27G C38U A39G A73C G94U U146C G152U and C27G C38U A49G G71A G94C U145C cannot be ordered by “polymerase ribozyme fitness (log ratio)” value: no more than -4.2 for the first, no more than -4.2 for the second.

Compared with C27G C43U G68C G74A C87U A89G A121U U151C, C27G C51U is higher in “polymerase ribozyme fitness (log ratio)” value: no more than -4.2 for the first, -3.97 for the second.

C27G C51U A52C A89G A97C U101G and C27G C54A G92U C103U U146C A147C cannot be ordered by “polymerase ribozyme fitness (log ratio)” value: no more than -4.2 for the first, no more than -4.2 for the second.

C27G C54G C57A U148A and C27G C54U C72U U146C cannot be ordered by “polymerase ribozyme fitness (log ratio)” value: no more than -4.2 for the first, no more than -4.2 for the second.

C27G C54U U61A C95U A97C A137C and C27G C69U G94C C123U cannot be ordered by “polymerase ribozyme fitness (log ratio)” value: no more than -4.2 for the first, no more than -4.2 for the second.

C27G C85U C95U G141A and C27G C87G cannot be ordered by “polymerase ribozyme fitness (log ratio)” value: no more than -4.2 for the first, no more than -4.2 for the second.

C27G C87G G88A U148C C149A and C27G C93U U130G U151A cannot be ordered by “polymerase ribozyme fitness (log ratio)” value: no more than -4.2 for the first, no more than -4.2 for the second.

Going from C27G G42A G50A C57U C87G to C27G G50A, the “polymerase ribozyme fitness (log ratio)” value rises from no more than -4.2 to -3.72.

C27G G50C G74U C76G and C27G G65A cannot be ordered by “polymerase ribozyme fitness (log ratio)” value: no more than -4.2 for the first, no more than -4.2 for the second.

C27G G94C G136U and C27G U31A G92C U104G A121C C125A A142U U145C U148A cannot be ordered by “polymerase ribozyme fitness (log ratio)” value: no more than -4.2 for the first, no more than -4.2 for the second.

C27G U44A C95G U104G C116G and C27G U55A G74A C85A A98C A115C A122U A138G cannot be ordered by “polymerase ribozyme fitness (log ratio)” value: no more than -4.2 for the first, no more than -4.2 for the second.

C27G U56A G83A A115C G140A and C27G U61A C79G C87G cannot be ordered by “polymerase ribozyme fitness (log ratio)” value: no more than -4.2 for the first, no more than -4.2 for the second.

C27G U77A A91U C116A U130A G133U and C27U A28G A60G A98U G100A U135G cannot be ordered by “polymerase ribozyme fitness (log ratio)” value: no more than -4.2 for the first, no more than -4.2 for the second.

C27U A28G U53G A73G C85U G86C A120U C132U and C27U A29U U144C cannot be ordered by “polymerase ribozyme fitness (log ratio)” value: no more than -4.2 for the first, no more than -4.2 for the second.

C27U A37C A52C C87U G88C and C27U A37C G59A U77C C87U U90G A137U cannot be ordered by “polymerase ribozyme fitness (log ratio)” value: no more than -4.2 for the first, no more than -4.2 for the second.

First: C27U A37U C99G
Second: C27U A39C G83A
The “polymerase ribozyme fitness (log ratio)” value of the first is higher: -3.64 for the first, no more than -4.2 for the second.

C27U A39G A40C C69A U77C G94U C95A C116U G140U and C27U A39G G70C C76U G80A U82A A98U cannot be ordered by “polymerase ribozyme fitness (log ratio)” value: no more than -4.2 for the first, no more than -4.2 for the second.

C27U A39U A52G C57G G58C A64C C72A C103G and C27U A40U U61G G67C U78G cannot be ordered by “polymerase ribozyme fitness (log ratio)” value: no more than -4.2 for the first, no more than -4.2 for the second.

C27U A40U U61G G67C U78G C116U and C27U A47U C76A C85U C108U G128C cannot be ordered by “polymerase ribozyme fitness (log ratio)” value: no more than -4.2 for the first, no more than -4.2 for the second.

C27U A52C C85U G86C C87A G92C C93U G126A C149A and C27U A52U G65A C75A A115C cannot be ordered by “polymerase ribozyme fitness (log ratio)” value: no more than -4.2 for the first, no more than -4.2 for the second.

C27U A91G A147C G152U and C27U A97G C131A U151C cannot be ordered by “polymerase ribozyme fitness (log ratio)” value: no more than -4.2 for the first, no more than -4.2 for the second.

Compared with C27U A122G, C27U A138G is lower in “polymerase ribozyme fitness (log ratio)” value: -2.4 for the first, -3.72 for the second.

C27U C32G A64G G92C G152U and C27U C32G C36U C87G cannot be ordered by “polymerase ribozyme fitness (log ratio)” value: no more than -4.2 for the first, no more than -4.2 for the second.

C27U C32U U78G U145G and C27U C36U C43G A52G G59U U61A G100U cannot be ordered by “polymerase ribozyme fitness (log ratio)” value: no more than -4.2 for the first, no more than -4.2 for the second.

C27U C43A A97U A150G and C27U C43A C75U C125G cannot be ordered by “polymerase ribozyme fitness (log ratio)” value: no more than -4.2 for the first, no more than -4.2 for the second.

C27U C54U C69A C76U G83A and C27U C57A A66C G71A C96A U130A cannot be ordered by “polymerase ribozyme fitness (log ratio)” value: no more than -4.2 for the first, no more than -4.2 for the second.

In the case of C27U C57A C87A A115U, the “polymerase ribozyme fitness (log ratio)” value is reported as no more than -4.2.
